Reference: publication PMC5892938
The other results are listed elsewhere or left out. At the low end of the ranking the order means little.

Target: GST-SBP-SLBP (stem-loop binding protein) (UniProt Q14493)
Experiment: targeted RNA Bind-n-Seq;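 note: DESeq read counts versus GST-SBP nonspecific binding control pulldown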
Details: RBNS binding buffer: 25 mM Tris pH 7.5, 150 mM KCl, 3 mM MgCl2, 0.1% Tween, 0.5 mg/mL BSA, 1 mM DTT; 27 nM protein, 750 pM RNA pool; temperature not stated; high values mean tight binding

Question: How did the binding signal (log2 fold change) turn out when “GGUCACGUCUCAAUCAACUCAUAAGAGGGGGGGAAAACCCCUUUGCCCUCAUCCUCAACAGCUCGCAGUCAAG” was run?
Answer: 0.0533

Question: Which binding signal (log2 fold change) does the source give for “GGUCACGUCUCAAUCAACUCAUUUCCCAGGGAAAUCCCUGGUAUUCUCAACAGCUCGCAGUCAAG” here?
Answer: 0.173

Question: With “GGUCACGUCUCAAUCAACUCUAGUCCCAGGGAAACCCCUGGCAAUUUCAACAGCUCGCAGUCAAG” as the sequence, how does the binding signal (log2 fold change) read?
Answer: -0.0101

Question: With “GGUCACGUCUCAAUCAACUCAAGUCCCAGGGAAAUCCCUGGCAAUUUCAACAGCUCGCAGUCAAG” as the sequence, how does the binding signal (log2 fold change) read?
Answer: -0.124

Question: “GGUCACGUCUCAAUCAACUCAUCUUCCAGGGAAAACCCUGGCAAAUUCAACAGCUCGCAGUCAAG” was tested. Which binding signal (log2 fold change) did it give?
Answer: 0.0663

Question: How did the binding signal (log2 fold change) turn out when “GGUCACGUCUCAAUCAACUCUAUCGCAGGAGUUUUCUCCUGGUUUCUCAACAGCUCGCAGUCAAG” was run?
Answer: 0.141

Question: With “GGUCACGUCUCAAUCAACUCUAUCCCCAGGGAAAUCCCUGGUAUUCUCAACAGCUCGCAGUCAAG” as the sequence, how does the binding signal (log2 fold change) read?
Answer: -0.267

Question: Which binding signal (log2 fold change) does the source give for “GGUCACGUCUCAAUCAACUCACACGAGGGGGGGAAAACCCCUUUACCCUCAUCUUCAACAGCUCGCAGUCAAG” here?
Answer: -0.0529

Question: With “GGUCACGUCUCAAUCAACUCAUCGCCAGGAGUUUACUCCUGCAUUUUCAACAGCUCGCAGUCAAG” as the sequence, how does the binding signal (log2 fold change) read?
Answer: 0.0293

Question: With “GGUCACGUCUCAAUCAACUCUUCCCCCAGGGAAACCCCUGGUUUUUUCAACAGCUCGCAGUCAAG” as the sequence, how does the binding signal (log2 fold change) read?
Answer: -0.186

Question: “GGUCACGUCUCAAUCAACUCAACUCCAGGAGUUUGCUCCUGUAUUCUCAACAGCUCGCAGUCAAG” was tested. Which binding signal (log2 fold change) did it give?
Answer: 0.00259

Question: How did the binding signal (log2 fold change) turn out when “GGUCACGUCUCAAUCAACUCAUCGUCAGGAGUUUCCUCCUGUAUUUUCAACAGCUCGCAGUCAAG” was run?
Answer: -0.0746

Question: How did the binding signal (log2 fold change) turn out when “GGUCACGUCUCAAUCAACUCUACUCCCAGGGAAAACCCUGGUUUUUUCAACAGCUCGCAGUCAAG” was run?
Answer: -0.0799

Question: How did the binding signal (log2 fold change) turn out when “GGUCACGUCUCAAUCAACUCUAUCUCAGGAGUUUCCUCCUGCAUUUUCAACAGCUCGCAGUCAAG” was run?
Answer: 0.0355

Question: “GGUCACGUCUCAAUCAACUCUUUUUCAGGAGUUUUCUCCUGCAAUUUCAACAGCUCGCAGUCAAG” was tested. Which binding signal (log2 fold change) did it give?
Answer: 0.065

Question: How did the binding signal (log2 fold change) turn out when “GGUCACGUCUCAAUCAACUCAAUCUCCAGGGAAAUCCCUGGCUUACUCAACAGCUCGCAGUCAAG” was run?
Answer: -0.119

Question: How did the binding signal (log2 fold change) turn out when “GGUCACGUCUCAAUCAACUCUAAAGAGGGGGGGAAAACCCCUUUGCCCUCAUUCUCAACAGCUCGCAGUCAAG” was run?
Answer: -0.168

Question: With “GGUCACGUCUCAAUCAACUCAAUCGAGGGGGGGAAAACCCCUUUACCCUCAACAUCAACAGCUCGCAGUCAAG” as the sequence, how does the binding signal (log2 fold change) read?
Answer: -0.244

Question: How did the binding signal (log2 fold change) turn out when “GGUCACGUCUCAAUCAACUCAUUUCCCAGGGAAACCCCUGGCUUUUUCAACAGCUCGCAGUCAAG” was run?
Answer: -0.0992

Question: Which binding signal (log2 fold change) does the source give for “GGUCACGUCUCAAUCAACUCUAUUUCCAGGGAAAGCCCUGGUUUAUUCAACAGCUCGCAGUCAAG” here?
Answer: 0.0194

Question: How did the binding signal (log2 fold change) turn out when “GGUCACGUCUCAAUCAACUCAACUCCAGGAGUUUUCUCCUGCUAUUUCAACAGCUCGCAGUCAAG” was run?
Answer: -0.194

Question: For “GGUCACGUCUCAAUCAACUCAGUCCCAGGAGUUUACUCCUGCUAUUUCAACAGCUCGCAGUCAAG”, which binding signal (log2 fold change) is on record?
Answer: -0.14

Question: With “GGUCACGUCUCAAUCAACUCUUUUUCCAGGGAAAUCCCUGGUAGUCUCAACAGCUCGCAGUCAAG” as the sequence, how does the binding signal (log2 fold change) read?
Answer: 0.088

Question: How did the binding signal (log2 fold change) turn out when “GGUCACGUCUCAAUCAACUCUAUUUCCAGGGAAACCCCUGGUUUUUUCAACAGCUCGCAGUCAAG” was run?
Answer: -0.229

Question: Which binding signal (log2 fold change) does the source give for “GGUCACGUCUCAAUCAACUCAUCCUCCAGGGAAAUCCCUGGUAAACUCAACAGCUCGCAGUCAAG” here?
Answer: 0.152

Question: “GGUCACGUCUCAAUCAACUCUUAAGAGGGGGGGAAAACCCCUUUGCCCUCAUCUUCAACAGCUCGCAGUCAAG” was tested. Which binding signal (log2 fold change) did it give?
Answer: -0.216

Question: With “GGUCACGUCUCAAUCAACUCAUUCCCAGGAGUUUACUCCUGUAUACUCAACAGCUCGCAGUCAAG” as the sequence, how does the binding signal (log2 fold change) read?
Answer: -0.0371

Question: Which binding signal (log2 fold change) does the source give for “GGUCACGUCUCAAUCAACUCUUCGUCCAGGGAAAUCCCUGGUAAUUUCAACAGCUCGCAGUCAAG” here?
Answer: -0.0121

Question: “GGUCACGUCUCAAUCAACUCAGUCUCAGGAGUUUACUCCUGUAUAUUCAACAGCUCGCAGUCAAG” was tested. Which binding signal (log2 fold change) did it give?
Answer: -0.0939

Question: How did the binding signal (log2 fold change) turn out when “GGUCACGUCUCAAUCAACUCUUCUCCCAGGGAAAUCCCUGGUAUUCUCAACAGCUCGCAGUCAAG” was run?
Answer: 0.0101

Question: “GGUCACGUCUCAAUCAACUCAGUCUCCAGGGAAACCCCUGGUAUAUUCAACAGCUCGCAGUCAAG” was tested. Which binding signal (log2 fold change) did it give?
Answer: -0.0261

Question: “GGUCACGUCUCAAUCAACUCAUCCUCCAGGGAAACCCCUGGUAAUUUCAACAGCUCGCAGUCAAG” was tested. Which binding signal (log2 fold change) did it give?
Answer: 0.0107

Question: “GGUCACGUCUCAAUCAACUCAUCCUCCAGGGAAAUCCCUGGUAAUCUCAACAGCUCGCAGUCAAG” was tested. Which binding signal (log2 fold change) did it give?
Answer: -0.0508

Question: “GGUCACGUCUCAAUCAACUCAUAAGAGGGGGGGAAAACCCCUUUACCCUCGAAUUCAACAGCUCGCAGUCAAG” was tested. Which binding signal (log2 fold change) did it give?
Answer: -0.391

Question: How did the binding signal (log2 fold change) turn out when “GGUCACGUCUCAAUCAACUCUUUCCCCAGGGAAAUCCCUGGCUAUGUCAACAGCUCGCAGUCAAG” was run?
Answer: 0.155

Question: Which binding signal (log2 fold change) does the source give for “GGUCACGUCUCAAUCAACUCAAACGAGGGGGGGAAAACCCCUUUGCCCUCACUAUCAACAGCUCGCAGUCAAG” here?
Answer: -0.27

Question: Which binding signal (log2 fold change) does the source give for “GGUCACGUCUCAAUCAACUCCAAAGAGGGGGGGAAAACCCCUUUACCCUCCAUCUCAACAGCUCGCAGUCAAG” here?
Answer: -0.303
